First the molecules themselves.
T1: UNK ZnF1-6 (called full-length) (human, UniProt Q9C0B0 30-357)
T1 sequence: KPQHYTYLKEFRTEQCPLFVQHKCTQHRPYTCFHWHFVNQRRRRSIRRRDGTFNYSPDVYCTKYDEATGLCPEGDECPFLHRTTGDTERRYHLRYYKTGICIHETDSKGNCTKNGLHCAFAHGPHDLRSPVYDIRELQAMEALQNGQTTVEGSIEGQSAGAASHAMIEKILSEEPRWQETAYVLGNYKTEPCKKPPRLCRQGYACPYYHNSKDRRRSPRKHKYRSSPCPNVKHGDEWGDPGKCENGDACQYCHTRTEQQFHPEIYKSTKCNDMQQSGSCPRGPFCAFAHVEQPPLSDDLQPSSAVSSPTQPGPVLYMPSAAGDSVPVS

B1: chr1:214641902:214642005:+|CDS|ENSG00000117724|unk|FALSE|bound_elsewhere (ssRNA)
RNA: GGGAGUUCUACAGUCCGACGAUCAGAAAUCAAUGUAAUUUUAAACCUCAGAUGGAUCUUGAAGUUAAAGAAAUUUCUCUAGAUAGUUAUAAUGCGCAGUUGGUGCAAUUAGAAGCUAUGCUAAGAAAUAAGGAAUUAAAACUUCAACAGAGGAUUGAGCAUCA
B2: ENSG00000070961:be:win_3801|3pUTR|ENSG00000070961|bound_else_gene|NA|bound_elsewhere_windowed (ssRNA)
RNA: GGGAGUUCUACAGUCCGACGAUCUUAUUUUUUUAAAAAAAAAAAAGCAAAGCUUUCUGCCAGACUGAGGGUGCUUUUUGGGGGGUGGGAGAAAUGAACUGACAGAUAAACAGUAACUCAGCGUAAGUGACCUGUGGAUCAUCACAACAGAGGAUUGAGCAUCA
B3: chr16:23068607:23068708:-|CDS|ENSG00000103404|msi1|FALSE|unique (ssRNA)
RNA: GGGAGUUCUACAGUCCGACGAUCCCUGCCACAAGGAGCCCUUUCCCACCUGGGAAGAGCAGGACUUCAGACCACAGCUUGAGUAGAGAGGGCUCCAGACAAAGCUUGGGUUCUGACAGAGCCAGCGCCACCUCCACCUCCAAACAACAGAGGAUUGAGCAUCA
B4: chr7:77749912:77750028:+|CDS|ENSG00000187257|unk|total|mutant (ssRNA)
RNA: GGGAGUUCUACAGUCCGACGAUCUGCAGCUUUCUACGUGAUGGGUAUUGUUCAUGGGGCAGCUACUUAUUUACCUGACUUUUCCGACUAUUUUUCAUUUAAUUUUCCCAAUUCACCAGUGAAAAUGGAGAUAUUGGGAAAGAACAACAGAGGAUUGAGCAUCA
B5: chr14:74902662:74902763:+|3pUTR|ENSG00000119689|msi1|FALSE|unique (ssRNA)
RNA: GGGAGUUCUACAGUCCGACGAUCCCCCUGGGGACCAUGUGAUUAAGUUCCUAUCUUUUGAAAGUUUGUUCUGCAGAGACUUCUAGGAGGAUGCUGUGCCUCCCAAGCUCAGAGCAGCCUCUGUCCUGGCUGUGCACAUUCUCCCAACAGAGGAUUGAGCAUCA
B6: chr14:80199969:80200157:-|3pUTR|ENSG00000211448|msi1|total|mutant (ssRNA)
RNA: GGGAGUUCUACAGUCCGACGAUCUUUAUGAUUUCUUGUGAUGUAUUCUUUUAUGAAAUUAACAAGAACUCAUUAUUUUGAGGCCGAGGAAAAUCAAUGCUUUAUCUGAUAUGCUGAGAAAUUAUCCGAUUGCCAAUACUCAUGCAACAGAGGAUUGAGCAUCA
B7: chr10:58277235:58277315:+|CDS|ENSG00000122873|msi1_unk|FALSE|overlapping (ssRNA)
RNA: GGGAGUUCUACAGUCCGACGAUCUAAAGAUCAUCGAAAUAAAGCUAUGAUAAACCUUCACAUCCAGAAAGACAACCCCAAGAUAGUACAUGCUUUUGACAUGGAGGAUUUGGGAGAUAAAGCUGUGUACUGCCGUUGUUGGAGCAACAGAGGAUUGAGCAUCA
B8: chr22:30522798:30525066:-|three_prime_utr|ENSG00000214491|control|control|control (ssRNA)
RNA: GGGAGUUCUACAGUCCGACGAUCGCUACACCGUGGAGGUACUGCUCCCAGACCAAACCUUCAUGGAGAAGAUGGAGAAAUUCUAGGUGAACCUCAUGGUCCCCACACCCUCCUCUUUGAUCUCUGAAUCCACAAUGAGUUCACCAACAGAGGAUUGAGCAUCA
B9: ENSG00000124766:be:win_1901|3pUTR|ENSG00000124766|bound_else_gene|NA|bound_elsewhere_windowed (ssRNA)
RNA: GGGAGUUCUACAGUCCGACGAUCUUAUUUUGCUUCUUGGUCAAGAAAGGAGGGGAGAACCCAGCGCACCCCUCCCCCCCUUUUUUUAAACGCGUGAUGAAGACAGAAGGCUCCGGGGUGACGAAUUUGGCCGAUGGCAGAUGUCAACAGAGGAUUGAGCAUCA
B10: chrX:130230552:130230660:-|CDS|ENSG00000056277|unk|FALSE|unique (ssRNA)
RNA: GGGAGUUCUACAGUCCGACGAUCAUCAGAACGUCCAUGUGAUGAAGACAAGACUGAUUCAGAGACAGGAAAGUUGAUCAUGUUAGUCAAUGAGUUUUAUUAUGGAAGGCAUGAAGGAGUCACUGAGAAAGAGCCAAAGACUUACAACAGAGGAUUGAGCAUCA
B11: ENSG00000136451:be:win_701|CDS|ENSG00000136451|bound_else_gene|NA|bound_elsewhere_windowed (ssRNA)
RNA: GGGAGUUCUACAGUCCGACGAUCGCAGUGUUUGUGGGAAAGGCUUCUCAAGGCCUGACCACUUAAGCUGUCAUGUAAAACAUGUCCAUUCAACAGAAAGACCCUUCAAAUGCCAAACGUGCACUGCUGCCUUUGCCACCAAAGCAACAGAGGAUUGAGCAUCA
B12: chr2:27133116:27133337:-|CDS|ENSG00000138073|control|control|control (ssRNA)
RNA: GGGAGUUCUACAGUCCGACGAUCACCCAGCACGAGGGGCUAGAACUCAGGGUAGAGAAUUUGCAGGCGGUGCAGACAGACUUUAGCUCCGAUCCACUGCAGAAAGUUGUGUGCUUCAACCACGAUAAUACCCUGCUUGCCACUCAACAGAGGAUUGAGCAUCA
B13: chr4:123402332:123402450:+|CDS|ENSG00000164056|unk|total|mutant (ssRNA)
RNA: GGGAGUUCUACAGUCCGACGAUCGACGAAGGGGAUUCCUAUUCAGAUAAUCCUUGCUCCUGUUCACAAUCACACUGCUGCUCCCGAUACCUGUGUAUGGGAGCCAUGUCUUUAUUUUUACCUUGCUUACUCUGUUAUCCUCCUCAACAGAGGAUUGAGCAUCA
B14: ENSG00000198589:be:win_7201|CDS|ENSG00000198589|bound_else_gene|NA|bound_elsewhere_windowed (ssRNA)
RNA: GGGAGUUCUACAGUCCGACGAUCGAGAGUGAAUUUGUUUCCUGCCAGCUUCACCAAUGGAUUGAUCUCAUUUUUGGCUAUAAACAGCAAGGACCAGAAGCUGUCCGAGCCCUCAAUGUGUUCUAUUACUUGACCUAUGAAGGACAACAGAGGAUUGAGCAUCA

The list shows a part of the results.

The test concerns the target T1, UNK ZnF1-6 (called full-length). Put plainly: nsRBNS (natural sequence RNA bind-n-seq); RBNS binding buffer (assumed for nsRBNS): 25 mM Tris pH 7.5, 150 mM KCl, 3 mM MgCl2, 0.01% Triton X-100, 500 ug/ml BSA, 20 U/ml SUPERase-In, 4 C; UNK is unkempt and MSI1 is Musashi-1; names of the RNAs are library labels; protein concentration not given here; high values mean tight binding.
The molecule B1 registered a binding signal of 0.497 enrichment R.

B2 displayed a binding signal of 0.778 enrichment R.

B3 registered a binding signal of 0.738 enrichment R.

B4 registered a binding signal of 0.466 enrichment R.

On to B5, for which the binding signal was found to be 0.455 enrichment R.

In the case of B6, the binding signal amounted to 0.395 enrichment R.

In turn, B7 came in with a binding signal of 0.446 enrichment R.

Molecule B8 showed a binding signal of 0.762 enrichment R.

B9 returned a binding signal of 0.793 enrichment R.

Turning to B10, the binding signal was found to be 0.93 enrichment R.

Regarding B11, the binding signal came out at 0.461 enrichment R.

B12 had a binding signal of 0.666 enrichment R.

B13 had a binding signal of 0.585 enrichment R.

As for B14, the binding signal is 0.478 enrichment R.

Source of the values: PMC12136788.
